Experimental data published in PubChem BioAssay AID485313 (National Center for Advancing Translational Sciences (NCATS), 2010).
In all, about 320,000 compounds went through this assay and about 7,600 (2.4%) were called active. This list was built around the results that the source calls inconclusive (neither active nor inactive); the mix of calls is not that of the screen. Calls follow the shape of the dose curve; as a rule, active = well fitted activation curve with a large enough effect; inconclusive = small, poorly fitted or top-dose-only effect; inactive = no such curve, though single readings can be large or run the other way. No potency is given beside an inconclusive call; the fits are too rough.
Potency is read from the fitted curve at half-maximal effect; tags tell the direction and shape of the fitted curve.

Experiment: qHTS Assay for NPC1 Promoter Activators; also: nearly all actives have a fitted effect of over 60% in size;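 as to activation: reporter is driven by a mutant NPC1 promoter; % of control where 0% means no effect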
Settings: Huh7 NPC1 promoter luciferase reporter, 24 h; series mostly up to 9.22 µM; activation: at the top concentration
How it was run: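 Cells: Huh7 expressing luciferase under the NPC1 promoter, 1500/well. Seeded 2 h, compound added, incubated 24 h at 37 °C. Luciferase reagent, 10 min ambient, then luminescence.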
In the case of `CN1C(=O)C(=O)/C(=C(/O)c2ccccc2)C1c1ccc([N+](=O)[O-])cc1` (stereo unspecified), the “activation” value is reported as inactive: 4.4%. In the case of `COc1ccc(OCC(=O)c2c[nH]c3ccccc23)cc1`, the Potency is reported as inconclusive [activator, single point]. In the case of `O=C1c2ccccc2C(=O)N1CCOc1ccc(F)cc1`, the Potency is reported as inconclusive [activator, partial curve]. In the case of `Cc1sc2nc(-c3ccc(Br)cc3)oc(=O)c2c1C`, the Potency is reported as inconclusive [activator, partial curve]. For `CCc1noc(C)c1C(=O)Nc1nc2ccc(F)cc2s1`, the Potency was inconclusive [activator, partial curve]. In the case of `COC(=O)[C@@H](NC(=O)Nc1ccc2c(c1)OCCO2)C(C)C`, the “activation” value is reported as inactive: 0.47%. For `COc1ccc(NC(=O)c2ccccc2-c2ccccc2C(=O)O)cc1`, the “activation” value was inactive: 0.332%. In the case of `Cc1ccc(O)c(-c2cc(-c3cccc(Br)c3)n[nH]2)c1`, the Potency is reported as inconclusive [activator, partial curve]. In the case of `CCc1ccc(CN(C)C(=O)c2cc(COc3ccc(OC)cc3Cl)on2)nc1`, the Potency is reported as active: 3.16 µM. With `CCCN(CCC)CCNC(=O)C1CCN(S(=O)(=O)c2cccc3nsnc23)CC1` the “activation” value was inactive: -0.15%. With `Cc1cc2nn(-c3cccc4ccccc34)nc2cc1N` the Potency was inconclusive [activator, partial curve]. With `CCc1cc(C=NC2CCCCC2)c(O)s1` the Potency was inconclusive [activator, partial curve]. With `O=C(O)/C=C/c1ccc(S(=O)(=O)N(CCO)CCO)cc1` the Potency was inconclusive [activator, single point]. With `C/C(=N\NC(=O)c1cc(C)nc2ccccc12)c1ccccn1` the “activation” value was inactive: -9.49%. For `COc1ccc(NC(=O)Nc2ccccc2SC)cc1`, the Potency was inconclusive [activator, partial curve]. In the case of `Cc1cc(=O)oc2cc(OCc3cc4c(cc3Cl)OCO4)ccc12`, the Potency is reported as inconclusive [activator, single point]. In the case of `Cc1ccc([N+](=O)[O-])cc1N/C=C1\CCCCC1=O`, the Potency is reported as inconclusive [activator, partial curve]. For `Brc1c(-c2ccccc2)nc2n1Cc1ccccc1-2`, the Potency was inconclusive [activator, single point]. In the case of `CN1CCN(/N=C/c2ccc(Cl)c(Cl)c2)CC1`, the Potency is reported as inconclusive [activator, partial curve]. With `Cc1ccc(C(=O)NC2CCC(C)CC2)s1` (stereo unspecified) the Potency was active: 0.891 µM. For `COc1ccc(NC(=O)NCCCCc2ccccc2)c(OC)c1`, the “activation” value was inactive: -2.52%. In the case of `COC1CCN(C(=O)C2CCC(=O)N(C3CCCCCC3)C2)CC1` (stereo unspecified), the Potency is reported as inconclusive [activator, single point]. With `O=C(CCc1ccccc1)NCCC1=CCCCC1` the “activation” value was inactive: 1.62%. In the case of `Cc1ccc(S(=O)(=O)N/N=C/c2cccn2-c2ccc(Cl)cc2)cc1`, the Potency is reported as inconclusive [activator, partial curve]. With `C=CCN1CCN(C(=O)CSc2ccccc2)CC1` the Potency was inconclusive [activator, single point]. With `O=C(Nc1nc2ccsc2c(=O)s1)c1ccco1` the Potency was inconclusive [activator, single point]. For `CC1CCc2nc(NC(=O)CSc3nc4ccccc4o3)sc2C1` (stereo unspecified), the Potency was inconclusive [activator, single point]. With `O=C(c1cc(-c2ccc(Br)cc2)on1)N1CCCC1` the Potency was active: 0.631 µM. With `Cc1cc(N2CCCC2)ccc1/C=C1\NC(=S)N(C)C1=O` the Potency was inconclusive [activator, single point]. For `Cc1ccc(NC(=O)CCC(=O)N/N=C/c2ccc(O)cc2O)cc1`, the “activation” value was inactive: -5.89%. With `CCn1c(-c2cc(-c3ccc(OC(C)C)cc3)nc3ccccc23)n[nH]c1=S` the Potency was inconclusive [activator, single point]. In the case of `CNS(=O)(=O)c1cccc(C(=O)OCC(=O)c2cc(C)n(CC3CCCO3)c2C)c1` (stereo unspecified), the Potency is reported as active: 2.51 µM. For `O=C(Nc1ccc(N2CCOCC2)c(Cl)c1)c1ccco1`, the Potency was active: 1.41 µM. For `CCc1ccc(NC(=O)c2cc(C)no2)cc1`, the Potency was inconclusive [activator, single point]. For `Cc1ccc(-c2nc(-c3nccc4ccccc34)oc2-c2ccccc2)cc1`, the Potency was inconclusive [activator, single point]. For `CCn1c(SCC(=O)c2ccccc2)nnc1-c1cccs1`, the Potency was inconclusive [activator, partial curve]. With `Fc1ccc(COc2cccc3cccnc23)cc1` the Potency was inconclusive [activator, single point]. With `O=C(O)CCC(=O)N1CCN(c2ccccn2)CC1` the “activation” value was inactive: -1.99%. In the case of `O=C(CNC(=O)c1ccco1)OCC(=O)c1ccc(Cl)cc1`, the “activation” value is reported as inactive: -2.44%. With `COc1ccc(NC(=O)c2ccc(C)cc2)cc1` the Potency was active: 0.398 µM. In the case of `COc1cccc(N(C(=O)CCl)C(C(=O)NCCc2ccccc2)c2cccs2)c1` (stereo unspecified), the “activation” value is reported as inactive: -40.3%. With `COc1ccccc1OCC(=O)Nc1ccc2c(c1)OCO2` the Potency was inconclusive [activator, partial curve]. For `COc1ccc(CC(=O)Nc2cccc(-c3nnc(-c4ccc(C)cc4)o3)c2)cc1OC`, the “activation” value was inactive: -1.75%. For `O=C(CSc1ncc(-c2ccc(F)cc2)[nH]1)Nc1cccc(O)c1`, the “activation” value was inactive: 1.37%. With `Cc1ccc(Oc2cc(C)nc(-c3ccccc3O)n2)cc1` the Potency was inconclusive [activator, partial curve]. For `CCC(C)c1ccc(NC(=O)Nc2cccnc2)cc1` (stereo unspecified), the Potency was active: 1.78 µM. For `Cc1cnc(NC(=O)C2CCCO2)s1` (stereo unspecified), the “activation” value was inactive: -6.76%. In the case of `CC(=O)Oc1cccc(C(=O)Nc2ccc3c(c2)C(=O)N(CC2CCCO2)C3=O)c1` (stereo unspecified), the “activation” value is reported as inactive: 22%. In the case of `CCOC(=O)c1ccc(NC(=O)C2C3CCCCC32)cc1` (stereo unspecified), the Potency is reported as inconclusive [activator, partial curve]. For `COc1ccc(NC(=O)c2ccco2)c([N+](=O)[O-])c1`, the Potency was inconclusive [activator, partial curve]. With `C/C(=N\Nc1nncc2ccccc12)c1cccc(OC(F)F)c1` the Potency was active: 1 µM.
